In the supplement of paper PMC3334620:
Over roughly 33,000 sequences, “E-score (-0.5 to 0.5)” has its median near -0.043; the highest 2% begin near 0.37. This is one part of the list.

Each sequence was assayed against T1, Upc2 (UniProt Q12151) (assay: PBM E-score (8-mer binding enrichment) (E-score (-0.5 to 0.5)); higher = stronger / more preferred TF binding; most listed sequences are background and not binding sites). Settings: protein concentration: 200 nM; construct: GST-full length.
T1 sequence: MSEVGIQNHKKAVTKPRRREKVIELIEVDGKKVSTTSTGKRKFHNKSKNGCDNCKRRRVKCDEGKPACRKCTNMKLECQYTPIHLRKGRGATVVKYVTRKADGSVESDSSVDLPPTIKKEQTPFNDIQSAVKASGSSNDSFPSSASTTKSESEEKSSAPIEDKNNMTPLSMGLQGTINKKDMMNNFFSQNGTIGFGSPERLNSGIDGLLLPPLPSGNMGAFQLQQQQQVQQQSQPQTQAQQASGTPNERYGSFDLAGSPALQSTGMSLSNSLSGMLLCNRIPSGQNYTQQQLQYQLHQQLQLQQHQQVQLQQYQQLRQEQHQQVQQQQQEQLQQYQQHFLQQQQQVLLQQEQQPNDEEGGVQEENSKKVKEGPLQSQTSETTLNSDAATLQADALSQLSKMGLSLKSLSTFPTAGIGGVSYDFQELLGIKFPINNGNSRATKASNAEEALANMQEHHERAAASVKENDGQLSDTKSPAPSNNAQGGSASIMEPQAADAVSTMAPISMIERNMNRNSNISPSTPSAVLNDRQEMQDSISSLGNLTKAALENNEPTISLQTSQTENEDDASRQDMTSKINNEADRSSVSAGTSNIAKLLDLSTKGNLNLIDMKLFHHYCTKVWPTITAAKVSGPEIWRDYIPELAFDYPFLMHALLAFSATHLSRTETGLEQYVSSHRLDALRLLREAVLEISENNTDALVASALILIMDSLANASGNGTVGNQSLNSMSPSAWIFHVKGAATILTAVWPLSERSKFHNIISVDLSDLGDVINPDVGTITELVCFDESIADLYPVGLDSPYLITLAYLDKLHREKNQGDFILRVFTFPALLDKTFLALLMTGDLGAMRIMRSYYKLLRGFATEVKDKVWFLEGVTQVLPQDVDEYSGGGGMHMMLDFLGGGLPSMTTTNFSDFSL
Summary of the method: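 Using PURExpress in vitro transcription/translation, GST-tagged yeast transcription factors were made in full-length or DNA-binding-domain form. These were applied at about 100-200 nM to double-stranded universal all-10-mer Agilent arrays, and bound protein was detected with fluorescent anti-GST. Scans were normalised with masliner before the Universal PBM Analysis Suite assigned E-scores to ungapped eight-base words pooled with their reverse complements.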

Sequence	PBM E-score
ATCTCGCA	0.211
AAGACTAA	-0.126
ATGTCACA	-0.137
TGATGGAA	-0.186
AATGTGAG	-0.135
GTTTAAAA	0.242
CTAGTAAA	-0.00018
ACAGGCGA	-0.251
CGACTGCC	0.0119
ATTAAACG	0.461
ACAGCTCG	0.181
GACCTTCA	-0.128
AAGGACGT	0.0675
TATGGGGA	-0.00994
ACATGCCG	0.074
TAGCGCTA	0.26
ATCGGTAC	0.228
ATCATAGA	-0.0573
CTATCGTC	-0.0375
CTGGCTTC	-0.113
ACGAAAAC	0.291
AAAGTCGT	0.244

Sequence	PBM E-score
AAGCGGCT	-0.0364
ATCCCAAC	0.0433
CAAAACTG	-0.0519
CGCTTCAA	0.181
CCTTTCGA	0.0842
GCGCTTTA	0.179
AGTTCTTC	0.099
ACTACACG	0.209
ATCTTTTG	0.11
AGTTACTA	0.0304
CGATCAAG	-0.00683
GACTAGGA	-0.176
CTGGCCTA	-0.108
GAGCAACA	-0.0943
CACGGCTA	-0.137
TCGGACCA	-0.0452
CTATGACC	0.104
AACTATCG	0.107
GCGAGATA	0.237
ACGAGAGC	0.375
AGGGCTAA	-0.163
ACTAGCTA	0.114

Sequence	PBM E-score
CGAAGACA	0.0359
AGGCACTG	-0.0625
CCTGCAAG	-0.108
TGACGGAA	-0.0592
AGAGCCCT	-0.182
AACGCGCT	0.152
CCACTGGC	-0.217
GCAAATTA	-0.0486
CGGCGAGC	0.144
GCGATAAA	0.128
ACTGGGAG	-0.223
AGCGGGGG	-0.3
CAGGCGAA	-0.155
AATAGTAA	-0.107
AAGTTGCC	-0.00513
ATGGCCCG	-0.118
AAGGCTCA	-0.206
TACTCTAA	0.052
AGGGGTCA	-0.239
CATTCGTA	0.416
ACATCATG	-0.215
GCTGACAC	-0.0878

Sequence	PBM E-score
AAAGCGTT	0.00802
CCCGTAGG	-0.0508
CGAGTTAG	0.16
GACAGGGA	-0.125
CGCTCCCA	-0.0119
CCTAACTA	-0.161
CTACACAA	0.104
GGCACCCA	-0.148
ATAGCCGG	-0.12
CCTCCATA	-0.0927
GCGTCGTA	0.468
CCTGCAGA	-0.216
AACCGCCC	-0.0676
CACAATGC	-0.251
GTTTGTAA	0.115
CCCAGATC	-0.135
ACATTCTG	-0.0694
CAAGAGTC	-0.103
GCATAACC	0.00112
ATACCCGG	-0.0285
